# In PubChem BioAssay AID463173 (ICCB-Longwood Screening Facility, Harvard Medical School, 2010):
# Out of some 52,000 compounds screened, about 4,300 (8.3%) were called active. No stated cut-off is given here; in the data, active means survival mostly below about 52% (no sharp cut-off); inactive means mostly above about 56%. This is one part of the list.
# Test system: DeltatarO mutant
# Experiment: growth inhibition of S. aureus wild type versus tarO mutant, primary screen, teichoic acid synthesis inhibitors, RN4220, OD600 (AID 463173)
# Details: OD600, 18 h, active compounds read low, screened at 18.75 µg/mL (by protocol)
row,SMILES,survival
1,Clc1ccc(CSc2nc3ncccc3[nH]2)cc1,inactive: 71%
2,CC1CC(C(F)F)n2nc(C(=O)Nc3sc4c(c3C#N)CCC(C(C)(C)C)C4)nc2N1 (centres undefined),inactive: 103%
3,COc1cc(SC#N)ccc1N=Cc1c(O)n(-c2cccc(C)c2)c(=O)[nH]c1=O,inactive: 88%
4,CC(C(=O)Nc1ccccc1C(F)(F)F)n1nc(-c2ccccc2)c2c(c1=O)CCCC2 (centres undefined),active: 30%
5,CC(=O)c1ccc(N2CCN(C(=O)Nc3cccc(F)c3)CC2)cc1,inactive: 57%
6,CCN(CC)c1ccc(C(=O)NCc2ccc3c(c2)CCN3C(C)=O)cc1,inactive: 81%
7,Cc1cc(C)c2c(-n3cccc3)c(C(=O)NCCc3ccccc3)sc2n1,inactive: 90%
8,CC(C)CC(=O)Nc1c(C(=O)N2CCN(c3ccccc3F)CC2)oc2ccccc12,inactive: 73%
9,COC(=O)c1c(O)c[nH]c1C,inactive: 107%
10,CCCCC(=O)Nc1ccc(C(=O)OCc2cc(=O)n3nc(C4CC4)sc3n2)cc1,inactive: 91%
11,COC(=O)Cn1cnc2c1c(=O)n(C)c(=O)n2C,inactive: 117%
12,COC(=O)C1=C(c2ccccc2)c2ccccc2S(=O)(=O)N1CC(=O)Nc1ccccc1C(F)(F)F,inactive: 55%
13,COCCCNc1cc(C)nc2ccccc12,inactive: 85%
14,COc1ccc(S(=O)(=O)Cc2ccc(C(=O)NC3CCCCC3)o2)cc1,inactive: 124%
15,Cc1csc(-c2coc3cc(O)cc(C)c3c2=O)n1,inactive: 68%
16,Cn1c(=O)n(CCc2ccccc2)c(=O)c2c1nc1n2CCN1c1ccc(Cl)cc1,inactive: 76%
17,Cc1cccc(N2CCN(c3ccc(C(=O)O)cc3NC(=O)c3ccccc3F)CC2C)c1 (centres undefined),inactive: 69%
18,O=C(CSc1n[nH]c(-c2ccccc2Cl)n1)N1CCN(c2ccccc2F)CC1,inactive: 119%
19,O=C(Cc1ccccc1)Nc1cccc(-c2nc3cccnc3s2)c1,inactive: 75%
20,CC1=C(C(=O)Nc2cccnc2)C(c2ccccc2)n2nc(SCc3ccccc3F)nc2N1 (centres undefined),inactive: 98%
21,O=C(NC1CCCC1)c1ccc2c(c1)N(Cc1ccccc1F)C(=O)c1ccccc1S2,inactive: 81%
22,COc1ccc(-c2coc3c2c(C)cc2oc(=O)cc(C)c23)cc1,inactive: 82%
23,Cc1oc(-c2ccc(C(=O)NCc3ccccc3)cc2)nc1CS(=O)(=O)c1ccccc1,inactive: 88%

row,SMILES,survival
1,Cc1sc2c(c1C)c(=O)n(-c1cccc(C(F)(F)F)c1)c(=O)n2Cc1ccccc1C#N,inactive: 125%
2,Cc1ccc(OCCCCn2c(CCNC(=O)C(C)(C)C)nc3ccccc32)cc1,active: 42%
3,Cc1ncc(CO)c2c1Oc1nc(-c3ccccc3)nc(SCC(=O)Nc3cccc(C(F)(F)F)c3)c1C2,inactive: 105%
4,CCOc1ccc(N(CC)C(=O)CSc2n[nH]c(-c3ccccc3)n2)cc1,inactive: 70%
5,CCn1cc(C(=O)NCc2ccccc2Cl)c(=O)c2cc(S(=O)(=O)N3CCCCC3)ccc21,inactive: 89%
6,COCCCNC(=O)C1CCC(Cn2c(=O)c3sccc3n(Cc3ccc(F)cc3)c2=O)CC1 (centres undefined),inactive: 99%
7,Cc1cc(NC(=O)Nc2csc3c2CCCC3)ccc1Br,inactive: 44%
8,Cc1c(NC(=O)c2ccc(N3CCC(C)CC3)c([N+](=O)[O-])c2)cccc1-c1nc2ccccc2o1,inactive: 58%
9,Cc1ccc(C(=O)Nc2ccc(OCc3cc(=O)n4c5c(sc4n3)CCCC5)cc2)cc1,inactive: 90%
10,Cc1cccc(N2CCN(C(=O)c3oc(=O)c4ccccc4c3-c3ccccc3)CC2)c1C,inactive: 69%
11,COc1ccc(CCN2C(=O)N(c3ccc(F)cc3)C(=O)C2CC(=O)Nc2ccc(F)c(F)c2)cc1 (centres undefined),inactive: 61%
12,Nc1ccc(-c2ccc(N)cc2C(F)(F)F)c(C(F)(F)F)c1,inactive: 91%
13,CCOc1ccc(N(CC(=O)NCc2ccc(Cl)cc2)S(=O)(=O)c2c(C)noc2C)cc1,inactive: 90%
14,CCCNC(=O)CCC(=O)N1Cc2ccccc2Oc2ncccc21,inactive: 131%
15,CCc1ccccc1NC(=O)C1CCN(C2=NS(=O)(=O)C(c3ccc(C)c(C)c3)=C2C)CC1,inactive: 80%
16,c1ccc(-c2nc(N3CCCCC3)c3ccccc3n2)cc1,inactive: 96%
17,COc1ccc(C(=O)CN2C(=O)N(c3cc(C)ccc3C)S(=O)(=O)c3ccccc32)cc1,inactive: 83%
18,O=C(O)CN1C(=O)CCC1=O,inactive: 97%
19,Cc1cc(C)cc(NC(=O)c2sc3nc(-c4cc5ccccc5oc4=O)[nH]c(=O)c3c2C)c1,active: 43%
20,COC(=O)c1c(C)sc(-c2c(-c3cccc(Cl)c3)[nH]c3c2c(=O)[nH]c(=O)n3C)c1O,inactive: 113%
21,COc1ccc(CCNC(=O)CCc2c(C)nc3c(c(C)nn3-c3ccccc3)c2C)c(OC)c1,active: 53%
22,CCc1cccc(C)c1NC(=O)C(C)Sc1nc2c(c(=O)[nH]1)CCCC2 (centres undefined),inactive: 98%
23,COc1ccccc1C(=O)Nc1nnc(SCc2cc(=O)n3ccc(C)cc3n2)s1,inactive: 64%

row,SMILES,survival
1,Cc1ccc(OCc2ccc(-c3nc(C#N)c(N4CCC(C)CC4)o3)o2)cc1,inactive: 58%
2,CC1=C(C(=O)OCc2ccc(C)cc2)C(c2ccccc2Cl)CC(=O)N1 (centres undefined),inactive: 69%
3,Cc1cccc(OCC(=O)Nc2ccc3c(c2)nc(CCNC(=O)c2ccco2)n3C)c1,inactive: 115%
4,Cc1nc2c3ccccc3nc(NNC(=O)CCC(=O)N3CCN(c4ccccc4)CC3)n2n1,inactive: 77%
5,CCOC(=O)c1c(C)oc2nc(C)nc(NC(C)c3ccccc3)c12 (centres undefined),inactive: 75%
6,CCOC(=O)c1cc2c(ccn2C)n1Cc1c(Cl)cccc1Cl,inactive: 87%
7,Cc1ccc2nc(SCC(=O)N3CCCCC3)c(C#N)cc2c1,inactive: 112%
8,CS(=O)(=O)N1CCc2cc(C(=O)N3CCN(c4ccc(F)cc4)CC3)ccc21,inactive: 48%
9,Cc1ccc(N2CC(NC(=O)c3ccc4c(c3)OCO4)CC2=O)cc1 (centres undefined),inactive: 96%
10,Cc1ccc(-n2c(SCC(=O)Nc3cccc(Cl)c3)nc3n[nH]c(C)c3c2=N)cc1,inactive: 88%
11,Cc1ccccc1NC(=O)Cn1nc(-c2ccc(F)cc2)c2cnc3ccccc3c21,active: 25%
12,CC(=O)N1CCCc2ccc(NS(=O)(=O)c3ccc(F)cc3F)cc21,inactive: 74%
13,Cc1ccc(Cl)cc1N1CCN(CCNC(=O)Nc2ccc(Cl)cc2)CC1,active: -4%
14,COc1ccc(N2CCN(C(=O)c3nc(-c4ccc(Cl)cc4)n4c3CCCCC4)CC2)cc1,inactive: 81%
15,CCOC(=O)c1c(-n2cnnn2)sc(C)c1C,inactive: 95%
16,CCOc1ccc(CNC(=O)c2ccc(CS(=O)c3ccccc3)o2)cc1 (centres undefined),inactive: 66%
17,O=C(C1CCN(S(=O)(=O)c2cccc3nonc23)CC1)N1CCN(c2ccccc2)CC1,inactive: 72%
18,COc1ccc(NC(=O)c2nnn(Cc3ccc(Br)cc3F)c2N)c(OC)c1,inactive: 68%
19,COc1ccccc1NC(=O)c1c(NC(=O)c2ccccc2F)sc2c1CCC2,inactive: 136%
20,COc1ccc(Cn2ccc3nc(C)c(C(=O)Nc4ccc(C)c(F)c4)cc3c2=O)cc1,inactive: 55%
21,Cc1ccc(-c2cc(C(=O)NCc3ccccc3)c3c(-c4ccc(C)cc4)[nH]nc3n2)cc1,inactive: 86%
22,COc1ccc(C(c2nnnn2CC2CCCO2)N2CCN(c3ccc(F)cc3)CC2)cc1OC (centres undefined),inactive: 103%
23,CCOc1ccc(-c2c(C)nn3c(C)c(C(=O)NCc4ccc(C)o4)cnc23)cc1OCC,inactive: 77%

row,SMILES,survival
1,Cc1cc(N2CCC(C)CC2)nc2ccc(NC(=O)/C=C/c3cccc(Cl)c3)cc12,active: 53%
2,CC(C)c1ccc(Nc2c(-c3ccccc3O)nc3cnccn23)cc1,inactive: 55%
3,CCc1ccccc1NC(=O)CSc1nnc(CC)c(CC)n1,inactive: 80%
4,CSc1ccc(CNC(=O)c2cc3c(=O)n(Cc4ccco4)ccc3nc2C)cc1,inactive: 94%
5,Cc1ccc2nc(NC(=O)c3cc(=O)c4cc(Cl)ccc4o3)sc2c1,inactive: 47%
6,Cn1c(Oc2ccc(F)cc2)nc2c1c(=O)n(Cc1ccccc1Cl)c(=O)n2C,inactive: 78%
7,O=C(NCCc1ccc(Cl)cc1)c1ccc(CS(=O)(=O)Cc2ccccc2F)o1,active: -1%
8,CC(=O)N1CCc2c(sc3c2c(=O)n(-c2ccc(C)cc2)c(=O)n3CC(=O)Nc2ccccc2)C1,inactive: 99%
9,Cc1ccc2c(c1)N(C(=O)N1CCC(C(=O)NCc3ccco3)CC1)CC(C)O2 (centres undefined),inactive: 76%
10,Nc1nc(NC(=O)CCC(=O)O)nn1-c1ccccc1,inactive: 53%
11,CCCCOC(=O)c1ccc(NC(=O)Cc2coc3ccc(C(C)C)cc23)cc1,inactive: 69%
12,CCSc1nc2c(c(=O)[nH]c(=O)n2C)n1CC(O)COc1ccc(Cl)cc1 (centres undefined),inactive: 167%
13,COc1ccc(N2CCN(C(=O)c3ccc4c(c3)CCN4S(C)(=O)=O)CC2)cc1,inactive: 57%
14,Cc1c(Cl)cccc1NC(=O)Cn1nc(C)c2sc3ccccc3c2c1=O,inactive: 73%
15,Cc1ccc(C)c(S(=O)(=O)c2nnn3c2nc(Nc2ccc(F)c(Cl)c2)c2sccc23)c1,inactive: 71%
16,Cc1nc(SCC(=O)Nc2ccc(Br)cc2)[nH]c(=O)c1Cc1ccccc1,inactive: 59%
17,CSc1ncc(C(=O)N2CCN(c3ccc(F)cc3)CC2)c(C)n1,inactive: 69%
18,COc1cccc(-c2nn(C)c3sc(C(=O)N4CCN(c5cccc(C)c5)C(C)C4)cc23)c1 (centres undefined),inactive: 66%
19,CCc1nnc(SCc2nc(-c3ccc(OC)cc3)oc2C)c2cc3sccc3n12,inactive: 83%
20,COc1ccccc1CCNC(=O)Cn1ccc2cc(S(=O)(=O)N3CCCCCC3)ccc21,inactive: 87%
